# From the supplement of paper PMC11417369
# ± gives the standard deviation of the averaged measurements. This is one part of the list.
# Tested on: PfAP2-G AP2 domain (GST-tagged)
# Assay: gcPBM binding intensity (ln(normalized median fluorescence intensity)); higher = stronger DNA binding
# Procedure, shortened: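 Binding intensity is defined as the maximum Masliner-normalised natural-log median intensity across replicate spots for either probe orientation. It was measured on an Agilent 4 × 180k array of primer-extended double-stranded 36-bp intergenic genomic probes and negative controls, to which GST-tagged P. falciparum DNA-binding domains made in E. coli were applied for 1 h in 1× PBS with 1% milk, 0.2 mg/ml BSA, 0.5% salmon testes DNA and 0.03% Triton X-100. Detection was by Alexa488 anti-GST antibody and scanning at 488 nm.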
row,Sequence,gcPBM binding intensity (ln)
1,GCTCATTGAAATTATACACACCAAATATATAAATAT [CACACA_site5385],10.1 ± 0.23
2,TGTGAATATATCTTTAAAAAGGATAAATAATAATTT [CACACA_negctrl_site507],9.7 ± 0.16
3,AACAAATTTTTTATTAAACACACAAACATATATATA [CACACA_site8588],9.925 ± 0.035
4,TATGAATATTGCATGTGTACCTATTATCCTTTTAAA [XGTACX_site4311],11.1 ± 0.7
5,TTTTTGTATCCTTTTAATATTAAATAAAAGGAATGT [CACACA_negctrl_site1468],10.2 ± 0.24
6,TTAATGTTTGAAAGAGTGCACATAACAAAAAAAAAA [GTGCAC_site9623],10.4 ± 0.21
7,TAATTAAAAAATGAATAAATGAATAAATAAATAAAT [CACACA_negctrl_site838],9.49 ± 0.22
8,ATATAAAATAAAAAAAAAAAAAAAAAAAAAAAAAAA [CACACA_negctrl_site1234],9.56 ± 0.099
9,AATGATCAGATATACACACACACAAAAAAAAAAAAA [CACACA_site7806],9.96 ± 0.26
10,AATAAAAAAAAATTCACACAAAGTTAGATTAACTAT [CACACA_site4224],9.63 ± 0.099
11,GTAAATAAATAAATAAATAAATATATATATATATAT [CACACA_negctrl_site1737],9.88 ± 0.47
12,AAGACAAATATGAAGAGTACATTTATATAAAAATTA [XGTACX_site5142],11 ± 0.67
13,CTACAATATCTTTAAAGTACTTTTATATAACTACCA [XGTACX_site6119],11.1 ± 0.61
14,AAAACAAACAGACACACACACATATTTATATTTATA [CACACA_site7681],10 ± 0.17
15,TTATATTAAACAAACACACACATATAAATATAAATA [CACACA_site7174],10.05 ± 0.021
16,TTTATATTTAAAAGGATGCACTACAAATTCTAAATA,10.3 ± 0.3
17,TATCCTTATATTTGCACACACACACCCTAAAATGAA [CACACA_site1029],10.3 ± 0.38
18,ATATATATATAATGAAGTACGAAAAAATAAGAAATG [XGTACX_site4001],10.9 ± 0.55
19,ACCTCATAATATTTAACACACAAAATTATATGTATG [CACACA_site1704],9.9 ± 0.014
20,ATTCTAAATAAATGTACACACAAAAATAAATGTATA [CACACA_site1732],11.4 ± 0.91
21,ATATATTTTTATGTAGTGCATTTAAATAATAAATGC,10.2 ± 0.3
22,ATTTTTTCCAATTCTTTACCTTAGAAAGGTGTTCAA [CACACA_negctrl_site1401],10.1

row,Sequence,gcPBM binding intensity (ln)
1,ATTAGAAAATAAAATAATAAATAAAATAAAAAAAAA [CACACA_negctrl_site409],9.595 ± 0.078
2,ATAAAAACATAAAAATGTACATATATATATATATAT [XGTACX_site7165],11 ± 0.58
3,TAATTTTATATAAATTGTACAAAAATATTTTATTAA [XGTACX_site7166],10.8 ± 0.42
4,TAAAATATACAAATTTGTACATATATATGTATGTAT [XGTACX_site1127],10.9 ± 0.38
5,TGCAGGTGTTATTCACGTACGCATTTGATTAAAAAA [XGTACX_site7743],11.1 ± 0.76
6,AAGGAATATGTATATACACACAGGTACATATTTATA [CACACA_site6344],11.1 ± 0.67
7,ATAAAGAATATAAATACACACTTAAATATATATTAT [CACACA_site6071],9.79 ± 0.12
8,TTTTATTTTATTCAATTTTTACTTTTATAAAAATAT [GTGCAC_negctrl_site578],10.1 ± 0.23
9,AATATTAGGTTATGTAGTACATAACAATAATTATAC [XGTACX_site5733],11.5 ± 0.94
10,GTGTTGGGAAAAGGCATGCACTTTTTTTTTTTTTTT,10.6 ± 0.31
11,ATGTATATGCAAACATGTACATATATAAACATATAT [XGTACX_site4159],11.1 ± 0.67
12,TTCACTATACAAAGGTGTACTTAATTTTGTCCCATT [XGTACX_site7483],11.4 ± 0.76
13,AGTTATTACACACAAACATGCATTAATATCAAAAAA [TGCATGCA_site63],10.07 ± 0.064
14,CACAAAAATTTATACACACACATATAAAATATAGAT [CACACA_site6218],10.25 ± 0.071
15,ATTAGGTATTTTTTTTGTACATATTATATAATGTGA [XGTACX_site3815],10.9 ± 0.43
16,AATTCACATGTGAACTAAAAGAATATTATATATATA [CACACA_negctrl_site1632],9.92 ± 0.071
17,AAATATATATATAGTACATGCAGTAGATAATTTAAT [TGCATGCA_site299],10.8 ± 0.56
18,ATTTATAAAATTAATGCACACATCAGCATTTATAAA [CACACA_site1025],9.94 ± 0.19
19,TAAATACATAGATGTACACACATTACAGATGTACAT [CACACA_site4692],11.7 ± 0.98
20,TATAAAATAAAAAATAAATATCTATATATATATATA [TGCATGCA_negctrl_site351],9.83 ± 0.64
21,ATAAAGCACACCGACACACACATATTTATATTTATA [CACACA_site6620],10.2 ± 0.13
22,TTGTGTTATCCTTTTTTAGATCAACTATTTTTATTC [CACACA_negctrl_site145],10.01 ± 0.078
